This passage reports relative growth recovery results from the supplement of paper PMC12340641.

The full ranking holds about 1,000 compounds; the median of “relative growth recovery (pomalidomide 10 uM = 100%, DMSO = 0%)” is about -1.6, and the highest 2% start at about 21. The list shows a part of the results.

In this test the test system is HEK293FT dCK*-IKZF1. Nature of the test: relative growth recovery (pomalidomide 10 uM = 100%, DMSO = 0%); higher = more growth rescue (IKZF1 fusion degradation). The conditions noted are these: compound concentration: 5 uM; AraC concentration: 0.3 uM; overnight pretreatment + 4 days AraC. How it is done: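 Growth recovery screen of the molecular-glue-like (Specs) library. HEK293FT cells expressing a dCK*-IKZF1 fusion (primary) or dCK* alone (counter) were pretreated overnight with compound at 5 uM, then given 0.3 uM AraC for 4 days. Hoechst nuclei were counted by imaging. Primary: normalised to pomalidomide (100%) and DMSO (0%), mean of 2 replicates. Counter: normalised to no-AraC (100%) and AraC+DMSO (0%), single replicate.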
Take `Nc1ccc(S(=O)(=O)Nc2nccc(/C=C/c3cccc(Br)c3)n2)cc1`: the relative growth recovery is -3.73%. As for `COc1ccccc1C(=O)Nc1ccc(S(=O)(=O)Nc2nccc(C)n2)cc1`, the figure is -0.71%; as for `COc1ccc(NS(=O)(=O)c2ccc(NC(=S)NC(=O)/C=C/c3ccccc3)cc2)nn1`, -0.54%; as for `Cc1cnc(Nc2cccc(C3CN(C(=O)CN(C(=O)OC(C)(C)C)c4ccccc4)CCO3)n2)s1` (configuration not stated), -8.73%. The value for `CC(=O)Nc1cccc(Oc2ccc3c(c2)C(=O)N(c2ccc(OC(C)=O)cc2)C3=O)c1` was -2.76%; that for `COc1ccc(-c2csc(Nc3ccc(S(=O)(=O)Nc4cc(OC)nc(OC)n4)cc3)n2)cc1` was -2.94%. As for `CCCc1cnc(Nc2cccc(C3CN(C(=O)C4CCCCC4)CCO3)n2)s1` (configuration not stated), the relative growth recovery is -7.63%. The value for `CCC(=O)Nc1ccc(S(=O)(=O)Nc2nccc(C)n2)cc1` was -1.14%; that for `Cc1ccc(/C=C/C(=O)Nc2ccc(S(=O)(=O)Nc3ncccn3)cc2)cc1` was -2.17%. The value for `O=C(Nc1ccc(S(=O)(=O)Nc2ncccn2)cc1)C1CC(=O)N(c2ccccc2)C1` (configuration not stated) was -18.9%.

`Nc1ccc(Oc2ccc3c(c2)C(=O)N(CCO)C3=O)cc1`: the relative growth recovery was found to be 2.76%.

Take `Cc1ccc(Nc2nc(C3CCCN(C(=O)/C=C/c4csc(C)n4)C3)cs2)nc1` (configuration not stated): the relative growth recovery was found to be 31.5%. The value for `CC(C)(N)C(=O)N1CCC(c2cccc(Nc3ncc(CC(F)(F)F)s3)n2)CC1` was -18%. In the case of `Cc1nc(Nc2cccc(C3CCN(C(=O)CCC4NC(=O)NC4=O)CC3)n2)sc1C` (configuration not stated), the relative growth recovery is 2.9%. As for `COc1ccc(NS(=O)(=O)c2ccc(NS(=O)(=O)c3ccccc3)cc2)nn1`, the figure is -7.91%; as for `Cc1cnc(Nc2cccc(C3CN(C(=O)C45CC6CC(CC(O)(C6)C4)C5)CCO3)n2)s1` (configuration not stated), -2.49%; as for `Cc1cnc(Nc2cccc(C3CCN(C(=O)[C@H]4CCCC[C@H]4C(=O)N(C)C)CC3)n2)s1`, -13.9%. As for `COc1cc(CN2CCCC2c2cccc(Nc3nccs3)n2)ccc1OCC(N)=O` (configuration not stated), the figure is -1.38%. Consider `COc1ccc(Br)cc1/C=N/NS(=O)(=O)c1ccccc1`, for which the relative growth recovery was -16.9%. As for `Nc1ccc(C(=O)N2CCCC2c2cccc(Nc3nccs3)n2)cn1` (configuration not stated), the figure is -0.685%; as for `O=C(Nc1ccc(S(=O)(=O)Nc2ccccn2)cc1)c1ccc(Cl)cc1Cl`, 0.76%; as for `Cc1ccnc(NS(=O)(=O)c2ccc(NC(=O)C34CC5CC(CC(C5)C3)C4)cc2)n1`, -6.07%.

Regarding `Cc1nc(Nc2cccc(C3CCCN3C(=O)c3cc4ccc(F)cc4[nH]3)n2)sc1C` (configuration not stated), the relative growth recovery was 11.2%.

As to `Cc1cnc(Nc2cccc(C3CCCN3C(=O)CCn3c(=O)oc4ccccc43)n2)s1` (configuration not stated), the relative growth recovery was -19%. As for `Cc1csc(Nc2cccc(C3CN(C(=O)CCOc4ccccc4C)CCO3)n2)n1` (configuration not stated), the figure is 62.8%; as for `CCCCc1cnc(Nc2cccc(C3CCN(C(=O)[C@@H]4CCCN4CCO)CC3)n2)s1`, -3.96%; as for `Cc1cnc(Nc2cccc(C3CCN(CC(N)=O)CC3)n2)s1`, -19.2%. The value for `CCc1nnsc1C(=O)N1CCCC1c1cccc(Nc2nccs2)n1` (configuration not stated) was 2.19%.

`Cc1cc(NS(=O)(=O)c2ccc(NC(=O)COc3ccc(C(C)C)cc3)cc2)nc(C)n1`: the relative growth recovery stood at 1.72%. On to `O=C(Nc1ccc(S(=O)(=O)Nc2ccccn2)cc1)c1cccs1`, for which the relative growth recovery is -0.55%. The value for `Cc1nc(Nc2cccc(C3CCCN3C(=O)CCc3nnc(C(C)C)o3)n2)sc1C` (configuration not stated) was 2.13%; that for `COc1ccc2[nH]c3nc(SCC(=O)N(Cc4ccccc4)c4ccc(F)cc4)nnc3c2c1` was 11.5%. Regarding `O=C1CCC(N2C(=O)c3cccc(N4CCC(C(=O)O)(c5ccccc5)CC4)c3C2=O)C(=O)N1` (configuration not stated), the relative growth recovery was 8.04%. As for `Cc1cnc(Nc2cccc(C3CCCN3C(=O)CCN(C)c3cccc(F)c3)n2)s1` (configuration not stated), the figure is -18.8%; as for `CCC(=O)N1CCOC(c2cccc(Nc3nc(C)c(C)s3)n2)C1` (configuration not stated), 6.1%; as for `COC1CCCC(C(=O)N2CCC(c3cccc(Nc4ncc(C)s4)n3)CC2)C1` (configuration not stated), -13%. Regarding `CC(C)c1cnc(Nc2cccc(C3CN(C(=O)C4CCCCC4)CCO3)n2)s1` (configuration not stated), the relative growth recovery is -2.9%. The value for `Cc1ccc(C(C)C)c(OCC(=O)Nc2ccc(S(=O)(=O)Nc3ccccn3)cc2)c1` was -1.57%; that for `Cc1cnc(Nc2cccc(C3CN(C(=O)CCC4CCCCC4)CCO3)n2)s1` (configuration not stated) was 7.2%.

For `CCOc1ccc(C(=O)Nc2ccc(S(=O)(=O)Nc3nccc(C)n3)cc2)cc1OCC`, the relative growth recovery amounted to 0.465%.

`COc1cc(NS(=O)(=O)c2ccc(Nc3nc(-c4ccc(C)c(C)c4)cs3)cc2)nc(OC)n1`: the relative growth recovery was found to be 0.29%. The value for `COc1ccc(N2C(=O)c3ccc(Oc4ccccc4)cc3C2=O)cc1` was -18.1%; that for `Cc1ccc(S(=O)(=O)CC(=O)Nc2ccc(S(=O)(=O)Nc3ncccn3)cc2)cc1` was -0.045%; that for `CC(C)Cc1nc2ccccc2n1CC(=O)N1CCC(Cc2cccc(Nc3nccs3)n2)CC1` was -1.89%. As for `CCC(C)C(=O)Nc1ccc(S(=O)(=O)Nc2ncccn2)cc1` (configuration not stated), the figure is -4.26%; as for `Cc1nc(Nc2cccc(C3CN(C(=O)c4cn5cccc(C)c5n4)CCO3)n2)sc1C` (configuration not stated), 2.21%; as for `CCNc1nc(NC(C)C)nc(NS(=O)(=O)c2ccc(N)cc2)n1`, 0.855%.
